# Experimental data reported in PubChem BioAssay AID445 (National Center for Advancing Translational Sciences (NCATS), 2006).
# In all, about 110,000 compounds went through this assay and about 40 (0.04%) were called active. This list was built around the results that the source calls inconclusive (neither active nor inactive); the mix of calls is not that of the screen. The call rests on the fitted dose curve; in most records, active means well fitted curve in the direction sought with a large enough effect in the signal ratio (not every such curve was filed as active); inconclusive means small, poorly fitted or top-dose-only effect, or a change in a side signal; inactive means flat fitted curve, though single readings scatter; the % refers to the signal ratio. Potencies of inconclusive entries are doubtful fits and often do not repeat.
# Test: IkB Signaling;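 on IkBa stabilization activation: 0% = basal untreated cells and 100% = reference inhibitor full response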
# Details: ABC-DLBCL IkBa-CBG/CBR dual luciferase ratio (green luciferase fused to IkBa over red control in OCI-Ly3 lymphoma cells), 4 h; IkBa stabilization activation: at 57.1 µM (top of the series), scaled: untreated 0%, proteasome inhibitor 100% unless noted
# Outline: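 Curves were fitted separately to fusion (green), unfused (red) and ratio luminescence, then classed by r2, magnitude and activity. Cells: OCI-Ly3, 4 h compound plus doxycycline at 37C; 10 uM MG-132 defined full response.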
# Potency means the concentration at half of the fitted maximal effect.
SMILES,IkBa stabilization activation,Potency
Cc1cccc(CSc2ncc(Cl)c(C(=O)Nc3nnc(C)s3)n2)c1,inactive,
O=C(Nc1nc2ccccc2[nH]1)C1CC(=O)N(c2ccc3c(c2)OCCO3)C1 (stereo unspecified),inconclusive: 2.32% [signal inhibitor],
Cc1ccc(-c2nc(CCNC(=O)C(=O)Nc3ccc(C)c(Cl)c3)cs2)cc1,inactive,
COc1cccc(C(=O)Nc2c(C(N)=O)oc3ccccc23)c1,inactive,
COC(=O)C(O)(CC(=O)Nc1ccc(OC(F)(F)F)cc1)C(F)(F)F (stereo unspecified),inconclusive: 18.5% [signal inhibitor],
CCCOc1ccc(CNC(=O)CCCN2C(=O)CSc3c2c(C)nn3-c2ccccc2)cc1,inconclusive: 16.4% [signal inhibitor],
COc1cccc(NC(=O)CCSc2nnc3scc(-c4ccccc4)n23)c1,inconclusive: 0.0648% [signal inhibitor],
CC1=C(C(=O)OCCOc2ccccc2)C(c2ccc(C)o2)C2=C(CC(C)(C)CC2=O)N1 (stereo unspecified),inconclusive: -0.333% [signal inhibitor],
N#Cc1cccc(NC(=O)C2CCN(S(=O)(=O)c3ccc4c(c3)CCCN4C(=O)C3CCC3)CC2)c1,inconclusive: -0.338% [signal inhibitor],
CCN1CCN(c2cc(C)c3cc(NC(=O)Cc4ccc(OC)c(OC)c4)ccc3n2)CC1,inactive,
CCOc1ccccc1NC(=O)CSc1nc2cc(OC)c(OC)cc2c2nc(CCn3c(C)nc4ccccc43)nn12,inactive,
Cc1ccc(NCc2nnc(SCC(=O)NCc3ccco3)n2CC2CCCO2)cc1Cl (stereo unspecified),inconclusive: 0.612% [signal inhibitor],
COc1cc(SC)ccc1C(=O)N1CCn2c3c(c4cc(C)ccc42)CCCC31 (stereo unspecified),inconclusive: -0.0854% [signal inhibitor],
Cc1ccc(C)c(N2CCN(C(=O)CCc3c(C)nn(-c4ccc(N5CCCC5)nn4)c3C)CC2)c1,inconclusive: -0.782% [signal inhibitor],
COc1ccccc1CNC(=O)CSc1nc2nc(C)c(Cc3ccccc3C)c(C)n2n1,inconclusive: 0.37% [signal inhibitor],
Cc1ccc(-c2c3c(=O)n(C)c(=O)n(C)c3cn2-n2cnnc2)cc1,,"inconclusive: 31.6 µM [rising, partial curve]"
O=C(CCCCCn1c(=O)[nH]c2ccsc2c1=O)NCc1ccccc1,inconclusive: -0.663% [signal inhibitor],
Cc1cc(C(=O)CSc2nnc(Nc3ccccc3F)s2)c(C)n1CC1CCCO1 (stereo unspecified),inconclusive: 4.35% [signal inhibitor],
CCOc1ccc(CNC(=O)Cn2nc(N3CCN(c4ccccc4)CC3)ccc2=O)cc1,inconclusive: 3.29% [signal inhibitor],
Cc1ccc(/C=C/c2onc(C)c2S(=O)(=O)N2CCC(C(=O)Nc3cccc(C#N)c3)CC2)cc1,inactive,
Cc1ccc(C(=O)N2CCN(c3ccccc3)CC2)cc1NC(=O)c1nsc2ccccc12,inconclusive: -3.63% [signal inhibitor],
N#Cc1c(C(F)(F)F)cc(-c2cccs2)nc1SCC(=O)Nc1cccc(Br)c1,inconclusive: -0.29% [signal inhibitor],

SMILES,IkBa stabilization activation,Potency
Cc1ccc(-c2nnc(Nc3ccc(F)cc3)c3ccccc23)cc1S(=O)(=O)NC(C)C,inconclusive: 15% [signal inhibitor],
CC(C)c1ccc(NC(=O)C2CCCN(S(=O)(=O)c3ccc4[nH]c(=O)oc4c3)C2)cc1 (stereo unspecified),inconclusive: 1.12% [signal inhibitor],
CCN(CC)S(=O)(=O)c1ccc2c(c1)c(=O)c(C(=O)N1CCN(c3ccc(OC)cc3)CC1)cn2C,inactive,
Cc1ccc(CNC(=O)CN2N=C(c3ccc(C)cc3)CCC2=O)cc1,inactive,
Cn1c(-c2cccc(Br)c2)cnc1NCc1cccc(F)c1,inactive,
CC(=O)c1c(C)[nH]c(C(=O)CSc2nnc(-c3ccco3)n2Cc2ccccc2)c1C,inconclusive: 2.97% [signal inhibitor],
CC(C)CNC(=O)C(=O)Nc1c2c(nn1-c1ccc(Cl)cc1)CSC2,inconclusive: -1.36% [signal activator],
CCOc1ccc(NC(=O)CSc2nc3ccccc3nc2N2CCOCC2)cc1,inconclusive: 5.23% [signal inhibitor],
O=c1c(N2CCN(c3ccc(F)cc3)CC2)csc2ccc(F)cc12,inconclusive: 4.94% [signal inhibitor],
CC(C)CC(=O)Nc1cccc(-c2cn3cccnc3n2)c1,inactive,
CC1CCN(S(=O)(=O)c2ccc3nc(Nc4cccc(F)c4)ccc3c2)CC1,inconclusive: 4.61% [signal inhibitor],
O=C(c1cn(-c2ccccc2)nc1-c1cccs1)N1CCN(c2ccccn2)CC1,inconclusive: 4.45% [signal inhibitor],
COc1ccc(OC)c(N(C)S(=O)(=O)c2ccc3c(c2)NC(=O)CC(=O)N3)c1,inconclusive: 0.771% [signal inhibitor],
COc1ccc2nc(N3CCN(C(=O)CS(=O)(=O)c4ccc(C)cc4)CC3)sc2c1,inactive,
O=S(=O)(Cc1ccccc1)N1CCCC(c2nc(-c3ccc(F)cc3)no2)C1 (stereo unspecified),inconclusive: 6.86% [signal inhibitor],
Cc1ccc(NC(=O)CCCn2c(=O)c3cccn3c3cccnc32)c(C)c1,inactive,
CCCN(CCC)C(=O)CSc1nc2n[nH]c(C)c2c(=N)n1-c1ccc(OCC)cc1,inconclusive: -1.32% [signal inhibitor],
COc1ccccc1N1CCN(CC(=O)Nc2cc(F)ccc2C)CC1,inconclusive: 3.35% [signal inhibitor],
COc1ccc(NC(=O)c2[nH]c(C)c(C(C)=O)c2C)cc1Cl,inconclusive: -1.19% [signal inhibitor],
C(=N\n1cnnc1)/c1ccc2ncccc2c1,inactive,
CCOc1ccc(NC(=O)c2cnn3c2NC(C)=C(C(=O)Nc2ccc(Cl)cc2)C3c2ccc(OC)c(OC)c2)cc1 (stereo unspecified),inconclusive: 3.26% [signal inhibitor],
N#Cc1c(-n2ncnc2-c2ccccc2Cl)sc2c1CCCCC2,inactive,

SMILES,IkBa stabilization activation,Potency
COc1ccc(N(C)C(=O)c2oc(=O)c3ccccc3c2-c2ccc(C)cc2)c(OC)c1,inconclusive: -0.603% [signal inhibitor],
O=C(CCC1N=C2c3ccccc3N=C(SCc3ccc(F)cc3)N2C1=O)N1CCN(c2ccccc2)CC1 (stereo unspecified),inconclusive: -1.57% [signal inhibitor],
COc1ccc(NC(=O)[C@@H]2[C@@H]3C(=O)N(C4CCCCC4)C(=O)[C@@H]3C3c4ccccc4C=CN32)cc1 (stereo partly specified),,"inconclusive: 25.1 µM [signal inhibitor, partial curve]"
CCOC(=O)c1ccc(N2C(=O)c3n[nH]c(-c4cccs4)c3C2c2cccc(O)c2)cc1 (stereo unspecified),inconclusive: -4.52% [signal inhibitor],
COc1ccc(N2CCN(C(=O)CCCCn3c(=O)[nH]c4ccsc4c3=O)CC2)cc1,inconclusive: 2.22% [signal inhibitor],
CC(C)c1ccc(CNC(=O)c2ccc(N3CCCC3)c(NC(=O)NCc3ccc(F)cc3)c2)cc1,inconclusive: 2.23% [signal inhibitor],
COC(=O)c1c(SCC(=O)Nc2ccccc2C(F)(F)F)[nH]c2ccc(Cl)cc2c1=O,inconclusive: 0.291% [signal inhibitor],
C=CCn1c2ccccc2c2nnc(SCCCn3c(=O)[nH]c4ccccc43)nc21,inconclusive: -6.12% [signal inhibitor],
Cc1cccc(S(=O)(=O)C(C#N)c2nc3ccccc3nc2N2CC(C)OC(C)C2)c1 (stereo unspecified),inactive,
COC(=O)c1cccc(NC(=O)NC2CCCN2S(=O)(=O)c2ccc(Cl)cc2)c1 (stereo unspecified),inconclusive: 3.54% [signal inhibitor],
COc1ccc(CNC(=O)c2cc(-c3ccc(OC)c(OC)c3)nc3n[nH]c(-c4ccc(C)cc4)c23)cc1,inactive,
CC(=O)c1ccc(NC(=O)CSc2nnc3c(n2)[nH]c2ccccc23)cc1,inconclusive: 11.9% [signal inhibitor],
O=C(Nc1ccc(F)cc1F)c1ccc(-n2cnc3cccnc32)cc1,inactive,
COc1cccc(Cn2c(=O)c(-c3cn(C)c4ccccc34)nc3cnc(N4CCNCC4)nc32)c1,"inactive: 1.56% [at 11.4 µM, scaled: untreated 0%, proteasome inhibitor 100%]",
COc1cccc(-c2nc(NC3CC3)c3ccccc3n2)c1,"inactive: -0.68% [at 11.4 µM, scaled: untreated 0%, proteasome inhibitor 100%]",
COc1ccccc1CNc1ccnc(-c2ccc(N(C)C)cc2)n1,"inactive: 9.59% [at 11.4 µM, scaled: untreated 0%, proteasome inhibitor 100%]",
COc1ccccc1N1CCN(C(=O)CCc2ccc(S(=O)(=O)NC(C)C)cc2)CC1,inconclusive: 3.35% [signal inhibitor],
CCN(CC)S(=O)(=O)c1cccc(-c2nnc(SC(C)C#N)n2Cc2ccccc2)c1 (stereo unspecified),inactive,
CC1=C(C(=O)Nc2ccc(C)cc2C)C(c2cccs2)n2nc(SCc3ccc(Cl)cc3)nc2N1 (stereo unspecified),inconclusive: 3.52% [signal inhibitor],
CC(=O)c1ccc(NC(=O)CC2Sc3ccccc3NC2=O)cc1 (stereo unspecified),inconclusive: 0.498% [signal inhibitor],
COc1ccc(-c2csc3ncnc(Nc4cccc(F)c4)c23)cc1,inconclusive: 0.86% [signal inhibitor],
Cc1cc(Oc2nc3ccccn3c(=O)c2/C=C(\C#N)c2nc3ccccc3s2)ccc1Cl,,"inconclusive: 31.6 µM [rising, partial curve]"
